{
  "source": "paper PMC4336329",
  "about": "(PLoS ONE, 2015)",
  "note": "Screen size: about 310,000 compounds; about 14,000 (4.5%) showed an effect of 50% or more. The effect is printed as a negative number. Some of the results follow.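 Also: peak tail current of the secondary pulse compared with the same well before compound.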",
  "data": [
    {"molecular_target": "human ether-à-go-go-related gene (hERG) potassium channel (human, UniProt Q12809)", "sequence (Q12809 whole entry, looked up)": "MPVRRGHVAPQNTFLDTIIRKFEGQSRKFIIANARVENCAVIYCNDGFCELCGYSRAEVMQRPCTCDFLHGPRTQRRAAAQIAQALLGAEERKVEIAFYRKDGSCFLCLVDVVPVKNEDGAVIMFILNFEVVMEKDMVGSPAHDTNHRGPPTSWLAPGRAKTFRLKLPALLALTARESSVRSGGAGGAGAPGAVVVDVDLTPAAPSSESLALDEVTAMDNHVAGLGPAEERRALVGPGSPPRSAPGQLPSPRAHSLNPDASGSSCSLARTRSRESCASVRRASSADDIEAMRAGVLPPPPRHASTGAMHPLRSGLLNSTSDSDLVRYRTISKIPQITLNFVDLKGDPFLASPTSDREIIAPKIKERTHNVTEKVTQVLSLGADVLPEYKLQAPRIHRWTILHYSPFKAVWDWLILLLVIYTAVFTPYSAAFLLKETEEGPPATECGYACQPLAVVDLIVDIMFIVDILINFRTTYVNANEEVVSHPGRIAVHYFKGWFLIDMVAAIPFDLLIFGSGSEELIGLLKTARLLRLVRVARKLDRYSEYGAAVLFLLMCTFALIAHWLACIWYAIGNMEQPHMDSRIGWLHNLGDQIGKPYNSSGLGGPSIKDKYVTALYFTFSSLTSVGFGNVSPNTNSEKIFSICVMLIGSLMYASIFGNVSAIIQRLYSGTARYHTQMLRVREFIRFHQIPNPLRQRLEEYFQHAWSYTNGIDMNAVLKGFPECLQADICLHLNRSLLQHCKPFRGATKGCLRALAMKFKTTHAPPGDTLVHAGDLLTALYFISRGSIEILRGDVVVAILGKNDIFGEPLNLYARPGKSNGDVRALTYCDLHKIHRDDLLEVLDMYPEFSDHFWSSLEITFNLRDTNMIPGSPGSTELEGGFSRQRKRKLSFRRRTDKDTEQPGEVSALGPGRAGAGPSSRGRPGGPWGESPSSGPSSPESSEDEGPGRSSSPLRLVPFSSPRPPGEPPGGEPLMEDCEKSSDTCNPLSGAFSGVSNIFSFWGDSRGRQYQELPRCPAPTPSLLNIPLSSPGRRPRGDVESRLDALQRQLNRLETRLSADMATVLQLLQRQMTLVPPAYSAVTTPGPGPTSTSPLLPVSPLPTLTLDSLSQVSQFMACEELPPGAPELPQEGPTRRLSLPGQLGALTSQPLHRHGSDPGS", "test": "primary screen, population patch clamp on CHO cells stably expressing hERG", "units": {"hERG current change (%, negative = inhibition) at 10uM": "%"}, "values": [
      {"smiles": "CCC(C)N(C(=O)CSc1nc2ccc(OC)cc2[nH]1)C1CCS(=O)(=O)C1", "note": "(stereo not drawn)", "hERG current change (%, negative = inhibition) at 10uM": 13.7},
      {"smiles": "O=C(Nc1cccc(O)c1)c1cccc(S(=O)(=O)Nc2cccc(O)c2)c1", "hERG current change (%, negative = inhibition) at 10uM": 18.6},
      {"smiles": "C=CCn1c(COc2ccccc2F)nnc1SCC(=O)N1CC(=O)Nc2ccccc21", "hERG current change (%, negative = inhibition) at 10uM": -22.6},
      {"smiles": "COc1ccc(C(=O)C2CCCN(Cc3cccn3-c3nccs3)C2)cc1F", "note": "(stereo not drawn)", "hERG current change (%, negative = inhibition) at 10uM": -83.5},
      {"smiles": "Nc1nonc1C(=O)N/N=C/c1cc2c(cc1Br)OCO2", "hERG current change (%, negative = inhibition) at 10uM": 9.34},
      {"smiles": "O=C(Nc1ccccc1N1CCN(C(=O)c2ccc(Cl)cc2)CC1)c1cccnc1", "hERG current change (%, negative = inhibition) at 10uM": -73.2},
      {"smiles": "CN(CCO)c1cc(N2CCCCC2)c2nonc2c1[N+](=O)[O-]", "hERG current change (%, negative = inhibition) at 10uM": 5.59},
      {"smiles": "C/C(N)=C(/C#N)C(=O)CSc1cc(C)c2ccccc2n1", "hERG current change (%, negative = inhibition) at 10uM": 6.89},
      {"smiles": "C=CCN1C(=O)NC(c2ccccc2)(C(F)(F)F)S/C1=C(\\C#N)c1nnc(N2CCOCC2)n1-c1ccccc1", "note": "(stereo not drawn)", "hERG current change (%, negative = inhibition) at 10uM": -19.4},
      {"smiles": "COCCSc1nnc(NC(=O)c2ccc([N+](=O)[O-])cc2)s1", "hERG current change (%, negative = inhibition) at 10uM": 27.9},
      {"smiles": "CCCCn1c(SCC(=O)N2CCOCC2)nc2ccccc2c1=O", "hERG current change (%, negative = inhibition) at 10uM": -68.4},
      {"smiles": "CC(C)(O)C1=NOC(c2ccccc2)C1", "note": "(stereo not drawn)", "hERG current change (%, negative = inhibition) at 10uM": 13.3},
      {"smiles": "COc1ccc([C@H]2[C@H](C(=O)OC(C)(C)C)N3N=Cc4ccccc4C3C23C(=O)c2ccccc2C3=O)cc1OC", "note": "(stereo partly drawn)", "hERG current change (%, negative = inhibition) at 10uM": -3.91},
      {"smiles": "COCCNC(=O)CN(C(=O)CCC(=O)Nc1nccs1)c1ccccc1OC", "hERG current change (%, negative = inhibition) at 10uM": 9.08},
      {"smiles": "CCOC(=O)c1cc(S(=O)(=O)Nc2cccc(OC)c2)cn1C", "hERG current change (%, negative = inhibition) at 10uM": -10.9},
      {"smiles": "COc1cc(N=C2C(=O)N3c4c(cccc42)C(C)=CC3(C)C)cc(OC)c1", "hERG current change (%, negative = inhibition) at 10uM": 3.85},
      {"smiles": "COc1ccc(N(CC(=O)NC2CC2)S(=O)(=O)c2ccccc2)cc1", "hERG current change (%, negative = inhibition) at 10uM": 13},
      {"smiles": "Cc1ccc(-n2c(O)c(C=NCCN3CCNCC3)c(=O)[nH]c2=S)cc1", "hERG current change (%, negative = inhibition) at 10uM": 22},
      {"smiles": "Cc1ccc(-c2c(C(=O)N/N=C/c3ccoc3)nnn2-c2nonc2N)cc1", "hERG current change (%, negative = inhibition) at 10uM": 10.6},
      {"smiles": "Cn1nnnc1SCCNS(=O)(=O)c1ccccc1", "hERG current change (%, negative = inhibition) at 10uM": 4.96},
      {"smiles": "CC12CCC(C(=O)Nc3ncc([N+](=O)[O-])s3)(OC1=O)C2(C)C", "note": "(stereo not drawn)", "hERG current change (%, negative = inhibition) at 10uM": 4.95},
      {"smiles": "CCOC(=O)C1(CC2CCCCO2)CCN(Cc2ccc(OC)cc2F)CC1", "note": "(stereo not drawn)", "hERG current change (%, negative = inhibition) at 10uM": -54.8},
      {"smiles": "COC(=O)CSc1nnc(-c2ccncc2)o1", "hERG current change (%, negative = inhibition) at 10uM": -1.54},
      {"smiles": "Cc1ccc(NS(=O)(=O)c2cc(C(=O)Nc3cccc([N+](=O)[O-])c3)ccc2C)cc1", "hERG current change (%, negative = inhibition) at 10uM": 12.1}
    ]}
  ]
}
